Measurements taken from PubChem BioAssay AID624170 (National Center for Advancing Translational Sciences (NCATS), 2012).
Screen size: about 410,000 compounds; about 850 (0.21%) were called active. The inconclusive results got no clear call from the source; some entries with a clear call stand among them for comparison. Calls follow the shape of the dose curve; as a rule, active = well fitted inhibition curve with a large enough effect; inconclusive = small, poorly fitted or top-dose-only effect, or another doubt; inactive = no such curve, though single readings can be large or run the other way. No potency is given beside an inconclusive call; the fits are too rough.

molecular target: Glutaminase kidney isoform, mitochondrial (Homo sapiens) (UniProt O94925); test: qHTS for Inhibitors of Glutaminase (GLS); settings: GLS enzymatic activity, qHTS titration; series mostly up to 45.5 µM; activity change, negative = inhibition: at the top concentration
UniProt O94925, sequence (O94925 whole entry, looked up, canonical isoform): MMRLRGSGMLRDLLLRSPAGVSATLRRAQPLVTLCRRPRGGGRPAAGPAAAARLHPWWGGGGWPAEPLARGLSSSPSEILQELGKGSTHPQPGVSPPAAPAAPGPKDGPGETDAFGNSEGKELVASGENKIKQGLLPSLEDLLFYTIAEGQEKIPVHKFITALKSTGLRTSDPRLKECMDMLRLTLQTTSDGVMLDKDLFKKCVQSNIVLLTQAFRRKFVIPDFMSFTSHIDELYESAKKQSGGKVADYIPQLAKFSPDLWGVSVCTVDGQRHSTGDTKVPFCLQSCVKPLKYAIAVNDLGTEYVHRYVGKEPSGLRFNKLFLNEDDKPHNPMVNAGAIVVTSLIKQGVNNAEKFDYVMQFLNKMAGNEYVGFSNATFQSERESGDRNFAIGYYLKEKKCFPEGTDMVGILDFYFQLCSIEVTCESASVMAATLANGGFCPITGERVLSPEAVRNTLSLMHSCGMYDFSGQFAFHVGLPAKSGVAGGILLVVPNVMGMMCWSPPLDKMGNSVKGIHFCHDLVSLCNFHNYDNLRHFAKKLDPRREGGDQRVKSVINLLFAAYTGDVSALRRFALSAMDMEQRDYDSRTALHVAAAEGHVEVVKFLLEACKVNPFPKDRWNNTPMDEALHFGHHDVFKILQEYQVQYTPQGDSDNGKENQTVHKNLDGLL
Method in brief: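 hKGA in 45 mM KH2PO4 (pH 8.2), 0.02% Tween-20 with compound, then 1mM L-Glutamine (stock as added) plus glutamate oxidase/HRP/Amplex red coupling mix. Fluorescence read initially and after 30 min at RT; signal change reflects glutamate formation.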
% is scaled to controls: 0 for no effect and ±100 for the full control effect; potency is read from the fitted curve at half-maximal effect; tags tell the direction and shape of the fitted curve.

SMILES | Potency | activity change, negative = inhibition
Cc1coc2c(C)c3oc(=O)c(CCC(=O)NCCC(=O)O)c(C)c3cc12 | inconclusive [inhibitor, partial curve, poor fit] | 
CCSc1nc2sc3c(c2c(=O)n1-c1ccc(C)cc1)CCN(C)C3 | inconclusive [inhibitor, single point] | 
COc1cc(C2NC(=O)CCC2[N+](=O)[O-])cc(Br)c1OC (centres undefined) |  | inactive: 1.75%
COC(=O)C1=C(C)N(Cc2ccc(C)cc2)C(=O)/C1=C\c1cc(OC)c(OC)c(OC)c1 |  | inactive: -10.4%
Cc1cc(C)cc(-n2cnc3cc(C(=O)NC4CCCCCC4)ccc32)c1 |  | inactive: -12.9%
COc1ccc(S(=O)(=O)n2nc(OC(=O)c3ccccc3)cc2N)cc1 |  | inactive: 53%
COc1ccc(C)cc1NC(=O)C(C)N1CCOCC1 (centres undefined) | inconclusive [inhibitor, single point] | 
CC(=O)c1ccc(N2CCN(S(=O)(=O)c3ccc4c(c3)C(Cl)(Cl)C(=O)N4)CC2)cc1 | inconclusive [inhibitor, partial curve] | 
CCC(C)N(C)C1CCN(C(=S)Nc2cccc(SC)c2)CC1 (centres undefined) | inconclusive [inhibitor, single point] | 
O=C(c1ccc2c(c1)OCO2)c1cn(Cc2ccc(Cl)cc2)c2ccc(F)cc2c1=O |  | inactive: 1.17%
CCOC(=O)C1=C(CS(=O)(=O)c2ccc(F)c(C)c2)NC(=O)NC1c1ccc(O)c(O)c1 (centres undefined) | inconclusive [inhibitor, single point] | 
CCCOc1cccc(C(=O)N(Cc2sccc2C)C2CCS(=O)(=O)C2)c1 (centres undefined) |  | inactive: 7.89%
Clc1nssc1=Nc1ccccc1 | inconclusive [inhibitor, single point] | 
C/C(=N\Nc1ccc(Cl)c(C(=O)O)c1)c1ccc(N2CCOCC2)cc1 | inconclusive [inhibitor, single point] | 
COc1ccc(C(=O)/C=C/C(=O)N(CC(=O)NCCC(C)C)Cc2cccs2)c(O)c1 | inconclusive [inhibitor, single point] | 
CCOc1ccc(N2C(=O)CNC2=S)cc1 | inconclusive [inhibitor, partial curve, poor fit] | 
CN(C)CCCNC(=S)NCC(c1ccc(Cl)cc1Cl)c1c[nH]c2ccccc12 (centres undefined) | inconclusive [inhibitor, partial curve] | 
COc1ccc(CCCc2nnc(SCc3nc4ccccc4c(=O)[nH]3)n2C)cc1 | inconclusive [inhibitor, single point] | 
COc1ccc2c(c1)CCc1c(C(=O)N3CC4(C)CC3CC(C)(C)C4)noc1-2 (centres undefined) |  | inactive: -1.32%
COc1ccccc1CNc1nc2c(S(=O)(=O)c3ccc(C)c(C)c3)nnn2c2ccc(Cl)cc12 | inconclusive [inhibitor, partial curve] | 
Cc1cc(C(=O)COC(=O)/C=C/c2ccco2)c(C)n1C | inconclusive [inhibitor, single point] | 
CCCCNC(=S)NNC(=O)c1c(C)nc2ccccn12 | inconclusive [inhibitor, single point] | 
COCC(=O)OCC(=O)Nc1cc(C(C)(C)C)nn1-c1ccccc1 |  | inactive: 7.98%

SMILES | Potency | activity change, negative = inhibition
CSCC[C@@H](Nc1nc(-c2ccccc2)nc2c1oc1ccccc12)C(=O)O | inconclusive [inhibitor, single point] | 
Cc1ccc(-c2cc(C(=O)NCCCN3CCCC3)c3ccccc3n2)cc1C | inconclusive [inhibitor, partial curve, poor fit] | 
CCCCn1cnc2c(SCCc3ccccc3)nc(N)nc21 |  | inactive: 0.63%
NS(=O)(=O)c1ccc(NC(=O)COc2ncnc3sccc23)cc1 |  | inactive: -1.59%
Cc1cccc(CNC(=O)c2ccc(N3Cc4ccccc4Oc4ncccc43)s2)c1 |  | inactive: 1.96%
CCn1c(CNS(=O)(=O)c2ccc(Cl)cc2)n[nH]c1=S | inconclusive [inhibitor, single point] | 
COc1ccc(S(=O)(=O)NCC(=O)N(CC(=O)NC(C)(C)C)Cc2cccs2)cc1 | inconclusive [inhibitor, partial curve, poor fit] | 
O=C(COC(=O)c1cncc(Br)c1)NCc1ccco1 | inconclusive [inhibitor, single point] | 
CC(C)C(NC(=O)/C(=C\c1ccco1)NC(=O)c1ccco1)C(=O)O (centres undefined) | inconclusive [inhibitor, partial curve] | 
CC(C)(C)[C@H]1CCC(=O)N([C@H](CSc2ccccc2)Cc2ccccc2)CC1 | inconclusive [inhibitor, single point] | 
O=C(O)CC(CCc1ccccc1)OC1OC(CO)C(O)C(O)C1O (centres undefined) | inconclusive [inhibitor, full curve, poor fit] | 
CC(C)N1CCC(C)(C(=O)Nc2ccc(Cl)c(Cl)c2)C1 (centres undefined) | inconclusive [inhibitor, single point] | 
COc1cc(C2=NC(CO)(CO)CO2)cc(OC)c1OC | inconclusive [inhibitor, full curve, poor fit] | 
CCCN1CCC(NC(=O)C2CC=CCC2C(=O)O)CC1 (centres undefined) |  | inactive: -6.61%
COc1ccccc1/C=C/C=N/Nc1cccc(C(=O)O)c1 | inconclusive [inhibitor, single point] | 
Cc1cc(NC(=O)CCC(=O)N(Cc2ccco2)C2(C(=O)NC3CCCC3)CCCCC2C)no1 (centres undefined) | inconclusive [inhibitor, single point] | 
COc1ccccc1N(CC(=O)NCCc1ccccc1)C(=O)CCC(=O)Nc1nccs1 |  | inactive: -25.4%
CSc1cc(-c2ccc(Cl)cc2)c(C(=O)NC(C)C)s1 | inconclusive [inhibitor, single point] | 
COc1ccccc1-c1nc(SCC(=O)NCc2ccccc2)c2c(=O)n(C)c(=O)n(C)c2n1 |  | inactive: -2.26%
Cc1nn(-c2ccccc2)c(Cl)c1/C=N/Nc1ccc(Cl)c(C(=O)O)c1 | active: 15.8 µM | 
O=C(O)c1cccc(-c2ccc(/C=N/Nc3ccc([N+](=O)[O-])cc3)o2)c1 | inconclusive [inhibitor, single point] | 
COc1ccccc1-c1sc2ccccc2c1-c1ccc(OCCN2CCOCC2)cc1 |  | inactive: -0.225%
CC1=CC(C)(C)NC(=S)N1c1cc(C)cc(C)c1 |  | inactive: 0.773%

SMILES | Potency | activity change, negative = inhibition
COc1ccc(-n2c(-c3ccco3)nc3c(cnn3-c3ccccc3Cl)c2=O)cc1 |  | inactive: 2.67%
Cc1nn(C)c2c1c(-c1ccccc1)cc(=O)n2CC(=O)NC(C)c1ccccc1 (centres undefined) | inconclusive [inhibitor, single point] | 
CCOc1ccc(N(CC)C(=O)Cc2c(C(=O)O)n(C)c3ccccc23)cc1 | inconclusive [inhibitor, single point] | 
Cc1cc(-c2cc(-c3ccccc3)on2)nc(NC2CCCC2)n1 |  | inactive: -1.02%
CNC(=O)c1ccc2c(c1)N(Cc1cc(C)ccc1C)C(=O)c1ccccc1S2 | inconclusive [inhibitor, partial curve, poor fit] | 
CCOC(=O)c1c(NC(=O)CSc2cn(CCNC(=O)c3ccc(OC)cc3)c3ccccc23)sc2c1CCCC2 |  | inactive: 2.07%
N=C1S/C(=C\c2ccco2)C(=O)N1c1ccc2c(c1)OCO2 | inconclusive [inhibitor, single point] | 
O=C(CNCc1ccccc1Cl)NCc1ccco1 | inconclusive [inhibitor, single point] | 
COc1ccc(-c2noc(CN(C(=O)C(C)Oc3ccc(C)cc3)C(C)C)n2)cc1 (centres undefined) |  | inactive: 5%
COc1ccccc1-c1cccc(-c2nc(C(=O)Nc3nccs3)cc3c2[C@@H](CCO)N(C(=O)CC2CC2)C3)c1 |  | inactive: -19.5%
Cc1ccc2oc(=O)c3cc(C(=O)NCCCN4CCCCCC4)sc3c2c1 |  | inactive: 2.66%
Cc1ccc(NC(=O)c2cnn(-c3ccccc3)c2NC(=O)c2ccco2)cc1 | inconclusive [inhibitor, single point] | 
COc1ccc(NC(=O)C(=O)NCCN2CCN(C(=O)C(c3ccccc3)c3ccccc3)CC2)cc1 | inconclusive [inhibitor, single point] | 
CCCSCCCNC(=O)Cn1c(=O)c2cccn2c2ccccc21 | inconclusive [inhibitor, single point] | 
CC(=O)c1cccc(NC(=S)NNC(=O)c2ccco2)c1 |  | inactive: 10.7%
C#CCOCCOCCOCCNc1nc(N2CCN(C(=O)[C@H](CC(N)=O)n3cc(C(N)[C@H](C)CC)nn3)CC2)nc(N2CCN(C(=O)[C@H](CC(N)=O)n3cc(C(N)[C@@H](C)CC)nn3)CC2)n1 (some centres undefined) |  | inactive: -2.21%
CC(C)(c1ccccc1)c1ccc(OCCN)cc1 | inconclusive [inhibitor, full curve] | 
CCCc1cc(=O)[nH]c2nnc(SCC(=O)Nc3ccc4c(c3)OCCO4)n12 |  | inactive: -1.29%
CN(C)c1cc(NC(=O)CNC(C)(C)C)c(O)c2c1C[C@@H]1C[C@H]3[C@H](N(C)C)C(=O)C(C(N)=O)=C(O)[C@@]3(O)C(=O)C1=C2O | active: 6.31 µM | 
COc1ccc2c(c1)C(=NO)c1cc(OC)ccc1-2 | inconclusive [inhibitor, single point] | 
CCOC(=O)CSC1=Nc2ccccc2C2=NC(CC(=O)NCc3cccs3)C(=O)N12 (centres undefined) | inconclusive [inhibitor, partial curve, poor fit] | 
O=C(CN1CCc2cc3c(cc2C1)OCCCO3)Nc1cccc([N+](=O)[O-])c1 | inconclusive [inhibitor, single point] | 
O=C(CCCN1C(=O)/C(=C/c2ccccc2Cl)SC1=S)Nc1ccccn1 |  | inactive: -12.9%
